Data reported in the supplement of paper PMC5499739.
The full ranking holds about 16,000 sequences; the median of “Z-score” is about -0.37, and the highest 2% start at about 3.2. The list shows a part of the results.

test system: RBM10 RRM1-ZnF (GST-tagged construct); assay: RNAcompete 7-mer binding Z-score; higher = stronger binding preference
Summary of the method: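 GST-tagged RBM10 constructs (20 pmol) and a designed pool of 241 399 RNAs up to 41 nt (1.5 nmol) were allowed to bind for 30 min at 4°C in 1 ml Hepes pH 7.8 buffer with glutathione Sepharose beads. After four 2-min washes at 4°C, bound RNA was identified by microarray hybridisation. Enrichment was scored per heptamer motif as a one-sided Z-score across the probes containing it.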

Sequence | RNAcompete 7-mer binding Z-score
GGUAGGA | 3.4
AGCACAU | -0.513
CAUUGGU | -0.00571
UGCGUCG | -0.106
UUUACCA | -0.834
ACUCAUU | -0.971
CGCUAGU | -0.532
GUGGCCA | 0.16
CUGUUCU | -0.847
UUGCGUG | 0.095
AUGAGGU | 1.9
UCUCGUG | -0.347
GAACGGU | 1.64
CGUCUGG | -0.116
GUAUAGC | 0.348
UAUGCUG | -0.152
GACCGAC | -0.672
GCUCCGU | -0.714
AUCCUUU | -0.919
CACGUGC | -0.379
CUACCUC | -0.782
CUCGUAG | -0.496
CCUGUAG | -0.415
CACAGCC | -0.467

Sequence | RNAcompete 7-mer binding Z-score
GUUCGUA | -0.526
ACCAGUC | -0.626
CGCUGGG | 1.27
AGGGUAC | 2.1
UAAAUGC | -0.246
AAAACUU | -0.652
AGACGCG | -0.418
GUCCGAU | -0.483
AGGAAGC | 1.08
ACCUUAA | -0.883
ACAUCCU | -0.909
AAUGCCU | -0.72
AGCCUGA | -0.587
UAGUUCA | -0.503
AUUCUGA | -0.811
CAUCCCG | -0.591
UCAAGCG | -0.282
GAGUCGG | 1.16
CAAUUUA | -0.636
UGGCCGG | 0.706
GCUAGUC | -0.451
UGUUAGA | -0.0642
UGAAAUA | -0.285
CUGGCAC | -0.00896

Sequence | RNAcompete 7-mer binding Z-score
GGAUGGC | 2.58
CGAUAAC | -0.565
AGCGUAU | -0.0317
UUAAAUU | -0.685
UCUGAAC | -0.724
AAGGUAA | 2.97
ACGUCUG | -0.591
UCUCGGU | -0.366
CCUAAGU | -0.558
GAUACGU | -0.022
AGUCACA | -0.197
AAAGCCA | -0.6
UCAUGCG | -0.594
UCGAUCG | -0.642
CGACGAA | -0.35
UCUUGCG | -0.652
GUGGUGU | 1.93
GUCACAA | -0.266
GACACCA | -0.412
UAGCAGC | -0.21
UUUCUUU | -0.772
UAGUGGG | 2.76
GGGCAGU | 2.28
CGCGUUC | -0.594

Sequence | RNAcompete 7-mer binding Z-score
UGCAAAU | -0.493
CCCAUCA | -0.847
GCGCUCG | -0.24
UGUAAGU | -0.142
CUCGAAG | -0.415
UCUCUGA | -0.691
CUGCAGA | -0.428
CGAUGCG | 0.231
UCGUUAU | -0.698
AAUCUAU | -0.591
UGGAAUC | 0.475
UGUGUUG | 0.319
UUACGGC | -0.363
GCCCAAA | -0.733
ACUUGAG | -0.422
ACGAAAU | -0.347
AAACCAA | -0.548
GAUUCUA | -0.681
AAUUCCA | -0.782
GAAGAUG | 1.81
UCACUUU | -0.844
ACUGUCU | -0.821
UCCUAGU | -0.629
UCAGACA | -0.555

Sequence | RNAcompete 7-mer binding Z-score
GCGGGCG | 2.18
CAGUAAC | -0.23
UAUCAAC | -0.639
GGGCGUU | 1.21
UUUGCCC | -0.652
AUAGUAU | -0.0155
AGCUACA | -0.227
CCACCUC | -0.487
CAAAAUU | -0.655
UGGUCGU | 0.342
GUGCGGU | 1.45
UCACUCA | -0.711
GCACGAC | 0.00729
CUUGGGC | 0.452
GCUGAAA | -0.106
GUCACCC | -0.327
ACCGAUU | -0.743
UAUAUGC | -0.36
UGUUUUG | -0.227
UUCAAAU | -0.607
AUUCUCA | -0.6
CUUGCCA | -0.756
UUAACAU | -0.487
CCAAUGU | -0.464

Sequence | RNAcompete 7-mer binding Z-score
GCACGAG | 0.579
AAAGAGU | 0.527
AGAUUAU | -0.259
GCUCAGA | -0.262
CGGUACA | 0.4
GAAAAGA | 0.722
UUUACUA | -0.746
GUCCGCG | 0.0333
GACGGGC | 1.12
CCCACGG | -0.0382
UACUGCG | -0.279
CGAGUGU | 0.339
AUACUUC | -0.75
UACAGCA | -0.474
CUUCGGA | -0.444
GAUCUAU | -0.574
UGAGAAC | -0.0934
AGUCAUA | -0.366
UCUAGGG | 1.34
GCGGGCC | 0.277
GCGUCCA | -0.454
CCAGAGU | -0.269
UUGUUAC | -0.373
AUUGCCG | -0.568

Sequence | RNAcompete 7-mer binding Z-score
CGUAAAA | -0.347
AUUAUAA | -0.34
UCGAUUU | -0.604
GAGCCCU | -0.594
AUCGCCC | -0.772
UAGAGUG | 1.08
GACGGUC | -0.217
AGACUGC | -0.854
UGAUUAG | 0.115
CUCUUUU | -0.902
AUUACAC | -0.655
AGACACG | -0.331
UACACGG | 0.345
AACAUCC | -0.707
GAUGAAC | 0.29
UUCACAA | -0.665
CCGCAUA | -0.717
GUUGAGU | 0.602
CGCUAGG | 0.491
GAACUCG | -0.383
UGGCACA | 0.257
GCUUUUC | -0.837
GCCGCUA | -0.591
AUACUCA | -0.688

Sequence | RNAcompete 7-mer binding Z-score
AGGUCGC | 0.0755
GGAUUGA | 1.73
CUCCAAU | -0.646
GGCCGGC | -0.23
GCGAAAA | 0.0528
CAAGUCC | -0.675
GCGGGUG | 3.17
GACCGCC | -0.652
GAGCAUA | 0.14
AUGUGUC | -0.145
UAGCAGU | -0.0967
AAACACA | -0.327
UCGUCCC | -0.763
GUGCCCG | -0.152
GCACUAC | -0.0967
AUUUGUA | -0.444
GCCUGUG | -0.363
UCUCGGA | -0.344
UGAGGAC | 0.959
UGCGUUA | -0.175
CAACAAC | -0.633
GCUAUUU | -0.717
UGUUGAG | 0.716
AACCAAA | -0.636

Sequence | RNAcompete 7-mer binding Z-score
CUCAGUA | -0.74
GCCCACG | -0.389
CAAUUAA | -0.633
GCUACAC | -0.158
GAUUUCG | -0.565
AAUACCC | -0.613
GUGUGAC | 0.543
AAUUUUC | -0.863
CGUGGCC | -0.35
ACCCUAG | -0.678
GCUCGAC | -0.467
CGGACGA | 0.485
AUGAACG | 0.303
UUGGUAA | 0.615
CCAAGAC | -0.646
CGCACGU | -0.552
GCUAAAC | -0.36
UCCGACA | -0.769
GAUAGAU | 0.407
AGCAAAU | -0.435
GCCGGCC | -0.548
AAGCGUC | -0.441
AGAUAGU | 0.0853
AUAACGC | -0.691

Sequence | RNAcompete 7-mer binding Z-score
UCGCCCG | -0.441
AGCCUCU | -0.831
AAAAAGU | 0.043
AAUUUUU | -0.743
GUCCCAG | -0.301
CCUCUGU | -0.769
UUCAGAA | -0.555
UUAUCCA | -0.668
GCUCAAG | -0.386
AUGAACC | -0.467
GUUUUCG | 0.0268
CCACUUU | -0.815
UAUCGUC | -0.688
UGAAUCG | 0.0463
GUCGUUA | -0.194
GGUGGGU | 3.78
GGGGCUA | 1.92
UCUCUCC | -0.805
